According to US8816122B2 (The Board of Trustees of the Leland Stanford Junior …, priority 2009, dated 2014):

What was measured:
[1] = biological target: PKC βI (Homo sapiens, UniProt P05771); assay: PKC competitive binding assay with [3H]PDBu, specific PKC isozyme
[2] = tested on: K562 human leukemia cells; assay: K562 cell efficacy assay (MTT growth inhibition); assay type: cell-based; conditions: growth inhibition of K562 cells, 48 h, error as SEM
Experimental: A cell efficacy assay (See Mossmann, Rapid colorimetric assay for cellular growth and survival: Application to proliferation and cytotoxicity assays. J. Immunological Methods 1983, 65, 55-63) was used to determine the EC50 for growth inhibition for K562 human leukemia cells. […] Analog was added via 10 or 20 triplicate serial dilutions (11 or 21 total concentrations) by 3× starting from 10 μM (final assay concentration). The cells were incubated at 37° C. for 48 h and worked up using standard MTT ((3-(4,5-Dimthylthiazol-yl)-2,5-diphenyltetrazolium bromide) protocols. Each compound was tested three times, and the error is reported as SEM.

[3] = tested on: CD4; assay: CD4 surface marker decrease in primary quiescent CD4+ T cells; assay type: cell-based
Experimental: (§1) In addition to the U1 data, the compounds from Table 1 above were tested for their effects on surface markers in primary quiescent CD+ T cells (data generated by J. Zack et. al. at UCLA).

[4] = biological target: rat brain PKC isoform mixture; assay type: binding
[5] = tested on: CD69; assay: CD69 surface marker induction in primary quiescent CD4+ T cells; assay type: cell-based
Experimental: as §1

[6] = tested on: U1 promonocytic cells containing two integrated HIV proviruses; assay: Viral activation of U1 promonocytic cells, HIV p24 ELISA of supernatant; assay type: cell-based; conditions: for Minimum Concentration for Viral Expression: measured by p24 levels
Experimental: After 48 hours of incubation with compound, we harvest the supernatant and assess the amount of virus present by using an ELISA specific for HIV p24 (the core protein of the HIV virion).

[7] = tested on: latent HIV-1; conditions: more potent than prostratin; cited from earlier work
[8] = tested on: CEM-SS and C-8166 cell lines; conditions: cited from earlier work
[9] = tested on: HIV-1; conditions: CEM-SS and C-8166 cell lines; cited from earlier work

UniProt P05771, sequence (P05771 whole entry): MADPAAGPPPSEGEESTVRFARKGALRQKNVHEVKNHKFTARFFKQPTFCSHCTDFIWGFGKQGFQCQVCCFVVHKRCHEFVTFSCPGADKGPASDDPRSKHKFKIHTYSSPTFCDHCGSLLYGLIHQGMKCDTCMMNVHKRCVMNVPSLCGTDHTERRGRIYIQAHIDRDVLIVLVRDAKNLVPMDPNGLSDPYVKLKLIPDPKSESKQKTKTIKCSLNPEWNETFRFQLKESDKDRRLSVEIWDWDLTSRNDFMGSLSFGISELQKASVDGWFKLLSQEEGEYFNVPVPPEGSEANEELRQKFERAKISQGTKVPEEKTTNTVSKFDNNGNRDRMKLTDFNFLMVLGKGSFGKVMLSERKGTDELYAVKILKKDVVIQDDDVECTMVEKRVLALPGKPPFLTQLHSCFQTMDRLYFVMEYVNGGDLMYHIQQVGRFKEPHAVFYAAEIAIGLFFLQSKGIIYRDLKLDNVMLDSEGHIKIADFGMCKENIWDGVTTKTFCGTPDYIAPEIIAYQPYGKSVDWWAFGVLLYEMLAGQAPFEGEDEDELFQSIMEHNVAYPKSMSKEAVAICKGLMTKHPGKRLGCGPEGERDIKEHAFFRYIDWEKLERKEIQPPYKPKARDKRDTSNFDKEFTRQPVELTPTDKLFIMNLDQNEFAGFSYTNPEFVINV

`CO[C@@H]1[C@@H](C)[C@@]2(O)[C@@H](C=C(CO)C[C@]3(O)C(=O)C(C)=C[C@@H]23)[C@@H]2C(C)(C)C12OC(C)=O` (stereo partly drawn) [C12-Methyl-C13-Acetyl Phorbol] gave a Ki [1] of 3 nM and an EC50 [2] of 700 ± 200 nM.
For `C=C1CC2CC3CCCC(CC(O)CC(=O)OC(CO)CC4CC(=CC(=O)OC)C(OC(=O)CCCCCCC)C(O)(O4)C(C)(C)C=CC(O1)O2)O3` (stereo not drawn) [C13 Olefin], the “Minimum Concentration for CD4 Decrease” value [3] was 100 nM, the Ki [4] was 1.63 nM and the “Minimum Concentration for CD69 Induction” value [5] was 10 nM. The “Concentration at Maximum p24 Level” value [6] was 1000 nM and the “Minimum Concentration for Viral Expression” value [6] was 1 nM.
For `CCCCCCCC(=O)OC1C(=CC(=O)OC)CC2CC(CO)OC(=O)CC(O)CC3CCCC(CC4CC(=CC(=O)OC)OC(C=CC(C)(C)C1(O)O2)O4)O3` (stereo not drawn) [C13 Z Enoate], the “Minimum Concentration for CD4 Decrease” value [3] was 100 nM, the Ki [4] was 0.9 nM and the “Minimum Concentration for CD69 Induction” value [5] was 1 nM. For the same compound, the “Concentration at Maximum p24 Level” value [6] was 100 nM and the “Minimum Concentration for Viral Expression” value [6] was 0.1 to 1 nM.
In the case of `CC1=C[C@H]2[C@@]3(O)[C@H](C)C[C@]4(OC(=O)Cc5ccccc5)[C@H]([C@@H]3C=C(CO)C[C@]2(O)C1=O)C4(C)C` [DPP, 12-deoxyphorbol 13-phenylacetate], the “potency in activating latent HIV-1 relative to prostratin” value [7] is listed as 20-30 fold.
With `CCCCCCCC(=O)O[C@H]1/C(=C/C(=O)OC)C[C@H]2C[C@H](CO)OC(=O)C[C@H](O)C[C@@H]3CCC[C@H](C[C@@H]4CCO[C@H](/C=C/C(C)(C)[C@]1(O)O2)O4)O3` [Picolog] the “Minimum Concentration for CD4 Decrease” value [3] was 1000 nM, the Ki [4] was 3.1 nM and the “Minimum Concentration for CD69 Induction” value [5] was 100 nM. For the same compound, the “Concentration at Maximum p24 Level” value [6] was 1000 nM and the “Minimum Concentration for Viral Expression” value [6] was 10 nM.
In the case of `CC(=O)O[C@@]12C[C@@H](C)[C@@]3(O)[C@@H](C=C(CO)C[C@]4(O)C(=O)C(C)=C[C@@H]34)[C@@H]1C2(C)C` [Prostratin, C12-deoxy-C13-acetyl phorbol, reference compound], the “Minimum Concentration for CD4 Decrease” value [3] is given as 10000 nM, the “Minimum Concentration for CD69 Induction” value [5] is given as 1000 nM and the “concentration up to which no sign of cytotoxicity was observed” value [8] is given as “about 25 μM”. The “Concentration at Maximum p24 Level” value [6] was 10000 nM, the “Minimum Concentration for Viral Expression” value [6] was 1000 nM and the “concentration at which cell viability was restored to the level of uninfected controls” value [9] was “approximately 1 μM”.
